# This is one part of the list.
# Legend:
# Assay in all cases: glycan array binding signal (z-score within array); higher = stronger binding
# Settings in all cases: glycan notation: IUPAC condensed, linker removed
# [1] = molecular target: Gal(b1-3)GlcNAc(a1-6)Gal(b1-4)GlcNAc
# Method in brief: (§1)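 Arrays were curated from the Consortium for Functional Glycomics database, 3228 in total, and kept only where the protein sequence was available. Binding is expressed as a within-array Z-score. This score was averaged across arrays of the same protein sequence at different concentrations or buffers and across linkers, and negative values can be read as non-binding.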
# Gal(b1-3)GlcNAc(b1-2)Man = molecular target: Gal(b1-3)GlcNAc(b1-2)Man
# Method in brief: as §1
# [2] = molecular target: Gal(b1-3)GlcNAc(b1-2)Man(a1-3)[Gal(b1-3)GlcNAc(b1-2)Man(a1-6)]Man(b1-4)GlcNAc(b1-4)GlcNAc
# Method in brief: as §1
# [3] = molecular target: Gal(b1-3)GlcNAc(b1-2)Man(a1-3)[Gal(b1-3)GlcNAc(b1-2)Man(a1-6)]Man(b1-4)GlcNAc(b1-4)[Fuc(a1-6)]GlcNAc
# Method in brief: as §1
# [4] = molecular target: Gal(b1-3)GlcNAc(b1-2)Man(a1-3)[GlcNAc(b1-4)][Gal(b1-3)GlcNAc(b1-2)Man(a1-6)]Man(b1-4)GlcNAc(b1-4)GlcNAc
# Method in brief: as §1
# [5] = molecular target: Gal(b1-3)GlcNAc(b1-2)[Gal(b1-3)GlcNAc(b1-6)]Man(a1-6)[Gal(b1-3)GlcNAc(b1-2)Man(a1-3)]Man(b1-4)GlcNAc(b1-4)GlcNAc
# Method in brief: as §1
# [6] = molecular target: Gal(b1-3)GlcNAc(b1-3)Gal(b1-3)GlcNAc
# Method in brief: as §1
# [7] = molecular target: Gal(b1-3)GlcNAc(b1-3)Gal(b1-4)Glc
# Method in brief: as §1
# [8] = molecular target: Gal(b1-3)GlcNAc(b1-3)Gal(b1-4)GlcNAc
# Method in brief: as §1
# [9] = molecular target: Gal(b1-3)GlcNAc(b1-3)Gal(b1-4)GlcNAc(b1-2)Man(a1-3)[Gal(b1-3)GlcNAc(b1-3)Gal(b1-4)GlcNAc(b1-2)Man(a1-6)]Man(b1-4)GlcNAc(b1-4)GlcNAc
# Method in brief: as §1
# [10] = molecular target: Gal(b1-3)GlcNAc(b1-3)Gal(b1-4)GlcNAc(b1-2)[Gal(b1-3)GlcNAc(b1-3)Gal(b1-4)GlcNAc(b1-6)]Man(a1-6)[Gal(b1-3)GlcNAc(b1-3)Gal(b1-4)GlcNAc(b1-2)Man(a1-3)]Man(b1-4)GlcNAc(b1-4)[Fuc(a1-6)]GlcNAc
# Method in brief: as §1
# [11] = molecular target: Gal(b1-3)GlcNAc(b1-3)Gal(b1-4)GlcNAc(b1-3)Gal(b1-4)GlcNAc(b1-2)[Gal(b1-3)GlcNAc(b1-3)Gal(b1-4)GlcNAc(b1-3)Gal(b1-4)GlcNAc(b1-6)]Man(a1-6)[Gal(b1-3)GlcNAc(b1-3)Gal(b1-4)GlcNAc(b1-3)Gal(b1-4)GlcNAc(b1-2)Man(a1-3)]Man(b1-4)GlcNAc(b1-4)[Fuc(a1-6)]GlcNAc
# Method in brief: as §1
# [12] = molecular target: Gal(b1-3)GlcNAc(b1-3)Gal(b1-4)GlcNAc(b1-6)[Gal(b1-3)GlcNAc(b1-3)]Gal(b1-4)Glc
# Method in brief: as §1
# [13] = molecular target: Gal(b1-3)GlcNAc(b1-3)Gal(b1-4)[Fuc(a1-3)]GlcNAc
# Method in brief: as §1
# [14] = molecular target: Gal(b1-3)GlcNAc(b1-3)Gal(b1-4)[Fuc(a1-3)]GlcNAc(b1-6)[Gal(b1-3)GlcNAc(b1-3)]Gal(b1-4)Glc
# Method in brief: as §1
# [15] = molecular target: Gal(b1-3)GlcNAc(b1-3)GalNAc
# Method in brief: as §1
# [16] = molecular target: Gal(b1-3)GlcNAc(b1-6)Gal(b1-4)GlcNAc
# Method in brief: as §1
# [17] = molecular target: Gal(b1-3)GlcNAc(b1-6)GalNAc
# Method in brief: as §1
# [18] = molecular target: Gal(b1-3)GlcNAc(b1-6)[Gal(b1-3)]GalNAc
# Method in brief: as §1
# Gal(b1-3)GlcNAc6S = molecular target: Gal(b1-3)GlcNAc6S
# Method in brief: as §1
# [19] = molecular target: Gal(b1-3)[Fuc(a1-4)]GlcNAc
# Method in brief: as §1
# [20] = molecular target: Gal(b1-3)[Fuc(a1-4)]GlcNAc(b1-2)Man
# Method in brief: as §1
# [21] = molecular target: Gal(b1-3)[Fuc(a1-4)]GlcNAc(b1-2)Man(a1-3)[Gal(b1-3)[Fuc(a1-4)]GlcNAc(b1-2)Man(a1-6)]Man(b1-4)GlcNAc(b1-4)[Fuc(a1-6)]GlcNAc
# Method in brief: as §1
# [22] = molecular target: Gal(b1-3)[Fuc(a1-4)]GlcNAc(b1-3)Gal(b1-3)[Fuc(a1-4)]GlcNAc
# Method in brief: as §1
# [23] = molecular target: Gal(b1-3)[Fuc(a1-4)]GlcNAc(b1-3)Gal(b1-4)GlcNAc
# Method in brief: as §1
# [24] = molecular target: Gal(b1-3)[Fuc(a1-4)]GlcNAc(b1-3)Gal(b1-4)[Fuc(a1-3)]GlcNAc
# Method in brief: as §1
# [25] = molecular target: Gal(b1-3)[Fuc(a1-4)]GlcNAc(b1-6)GalNAc
# Method in brief: as §1
# [26] = molecular target: Gal(b1-3)[GlcNAc(b1-6)]GalNAc
# Method in brief: as §1
# [27] = molecular target: Gal(b1-3)[Neu5Ac(a2-6)]GalNAc
# Method in brief: as §1
# [28] = molecular target: Gal(b1-3)[Neu5Ac(a2-6)]GlcNAc(b1-4)Gal(b1-4)Glc
# Method in brief: as §1
# [29] = molecular target: Gal(b1-3)[Neu5Ac(a2-6)]GlcNAc(b1-6)Gal(b1-4)Glc
# Method in brief: as §1
# [30] = molecular target: Gal(b1-3)[Neu5Ac(b2-6)]GalNAc
# Method in brief: as §1
# Gal(b1-4)Gal = molecular target: Gal(b1-4)Gal
# Method in brief: as §1
# [31] = molecular target: Gal(b1-4)GalNAc(a1-3)[Fuc(a1-2)]Gal(b1-4)GlcNAc
# Method in brief: as §1
# [32] = molecular target: Gal(b1-4)GalNAc(b1-3)[Fuc(a1-2)]Gal(b1-4)GlcNAc
# Method in brief: as §1
# Gal(b1-4)Glc = molecular target: Gal(b1-4)Glc
# Method in brief: as §1
# Gal(b1-4)Glc6S = molecular target: Gal(b1-4)Glc6S
# Method in brief: as §1
# Gal(b1-4)GlcNAc = molecular target: Gal(b1-4)GlcNAc
# Method in brief: as §1
# [33] = molecular target: Gal(b1-4)GlcNAc(a1-6)Gal(b1-4)GlcNAc
# Method in brief: as §1
# Gal(b1-4)GlcNAc(b1-2)Man = molecular target: Gal(b1-4)GlcNAc(b1-2)Man
# Method in brief: as §1
# [34] = molecular target: Gal(b1-4)GlcNAc(b1-2)Man(a1-3)Man(b1-4)GlcNAc(b1-4)GlcNAc
# Method in brief: as §1
# [35] = molecular target: Gal(b1-4)GlcNAc(b1-2)Man(a1-3)[Gal(b1-4)GlcNAc(b1-2)Man(a1-6)]Man(b1-4)GlcNAc(b1-4)GlcNAc
# Method in brief: as §1
# [36] = molecular target: Gal(b1-4)GlcNAc(b1-2)Man(a1-3)[Gal(b1-4)GlcNAc(b1-2)Man(a1-6)]Man(b1-4)GlcNAc(b1-4)[Fuc(a1-6)]GlcNAc
# Method in brief: as §1
# [37] = molecular target: Gal(b1-4)GlcNAc(b1-2)Man(a1-3)[Gal(b1-4)GlcNAc(b1-2)Man(a1-6)][Gal(b1-4)GlcNAc(b1-4)]Man(b1-4)GlcNAc(b1-4)[Fuc(a1-6)]GlcNAc
# Method in brief: as §1
# [38] = molecular target: Gal(b1-4)GlcNAc(b1-2)Man(a1-3)[Gal(b1-4)GlcNAc(b1-2)Man(a1-6)][GlcNAc(b1-4)]Man(b1-4)GlcNAc(b1-4)[Fuc(a1-6)]GlcNAc
# Method in brief: as §1
binder,measurement,setting,value
HHA (Hippeastrum hybrid) (protein) MQQDCNLVLYDVDKPIWASNTGGLARDCHLNMQSDGNLVVYAPRNQVIWASNTQGENGNYVCILQKDRNVVIYGTARWATGTNIHGAGIVGVPGSAPQNTTAEMIKLVRKYLITK,glycan array binding signal (z-score),[1],-0.207
same,glycan array binding signal (z-score),Gal(b1-3)GlcNAc(b1-2)Man,-0.213
same,glycan array binding signal (z-score),[2],0.434
same,glycan array binding signal (z-score),[3],-0.094
same,glycan array binding signal (z-score),[4],0.4
same,glycan array binding signal (z-score),[5],0.14
same,glycan array binding signal (z-score),[6],-0.206
same,glycan array binding signal (z-score),[7],-0.219
same,glycan array binding signal (z-score),[8],-0.208
same,glycan array binding signal (z-score),[9],0.063
same,glycan array binding signal (z-score),[10],1.54
same,glycan array binding signal (z-score),[11],1.31
same,glycan array binding signal (z-score),[12],-0.212
same,glycan array binding signal (z-score),[13],-0.204
same,glycan array binding signal (z-score),[14],-0.202
same,glycan array binding signal (z-score),[15],0.808
same,glycan array binding signal (z-score),[16],-0.211
same,glycan array binding signal (z-score),[17],-0.211
same,glycan array binding signal (z-score),[18],-0.071
same,glycan array binding signal (z-score),Gal(b1-3)GlcNAc6S,-0.216
same,glycan array binding signal (z-score),[19],-0.212
same,glycan array binding signal (z-score),[20],-0.207
same,glycan array binding signal (z-score),[21],1.39
same,glycan array binding signal (z-score),[22],-0.191
same,glycan array binding signal (z-score),[23],-0.255
same,glycan array binding signal (z-score),[24],-0.212
same,glycan array binding signal (z-score),[25],-0.185
same,glycan array binding signal (z-score),[26],-0.213
same,glycan array binding signal (z-score),[27],-0.21
same,glycan array binding signal (z-score),[28],-0.214
same,glycan array binding signal (z-score),[29],-0.251
same,glycan array binding signal (z-score),[30],-0.22
same,glycan array binding signal (z-score),Gal(b1-4)Gal,-0.208
same,glycan array binding signal (z-score),[31],-0.22
same,glycan array binding signal (z-score),[32],-0.215
same,glycan array binding signal (z-score),Gal(b1-4)Glc,-0.212
same,glycan array binding signal (z-score),Gal(b1-4)Glc6S,-0.205
same,glycan array binding signal (z-score),Gal(b1-4)GlcNAc,-0.196
same,glycan array binding signal (z-score),[33],-0.208
same,glycan array binding signal (z-score),Gal(b1-4)GlcNAc(b1-2)Man,-0.197
same,glycan array binding signal (z-score),[34],0.485
same,glycan array binding signal (z-score),[35],0.963
same,glycan array binding signal (z-score),[36],-0.004
same,glycan array binding signal (z-score),[37],-0.198
same,glycan array binding signal (z-score),[38],-0.22

# — the supplement of paper PMC8728848
